Measurements taken from the supplement of paper PMC8728848.
The list shows a part of the results.

Key:
Test in all cases: glycan array binding signal (z-score within array); higher = stronger binding
Conditions in all cases: glycan notation: IUPAC condensed, linker removed
[1] = molecular target: Fuc(a1-2)Gal(b1-4)GlcNAc(b1-3)Gal(b1-4)GlcNAc(b1-3)Gal(b1-4)GlcNAc
How it was run: (§1)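 Glycan array binding is given as a within-array Z-score, which can be read as non-binding when negative. The arrays, 3228 of them, came from the Consortium for Functional Glycomics database and were retained only where the protein sequence was available. Z-scores were averaged across arrays of the same protein sequence at different concentrations or buffers and across linkers.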

[2] = molecular target: Fuc(a1-2)Gal(b1-4)GlcNAc(b1-3)GalNAc
How it was run: as §1

[3] = molecular target: Fuc(a1-2)Gal(b1-4)GlcNAc(b1-3)[Fuc(a1-2)Gal(b1-4)GlcNAc(b1-6)]GalNAc
How it was run: as §1

[4] = molecular target: Fuc(a1-2)Gal(b1-4)GlcNAc(b1-3)[Fuc(a1-3)[Gal(b1-4)]GlcNAc(b1-6)]Gal(b1-4)Glc
How it was run: as §1

[5] = molecular target: Fuc(a1-2)Gal(b1-4)GlcNAc(b1-6)GalNAc
How it was run: as §1

[6] = molecular target: Fuc(a1-2)Gal(b1-4)GlcNAc6S
How it was run: as §1

[7] = molecular target: Fuc(a1-2)Gal(b1-4)[Fuc(a1-3)]GlcNAc
How it was run: as §1

[8] = molecular target: Fuc(a1-2)Gal(b1-4)[Fuc(a1-3)]GlcNAc(b1-2)Man(a1-3)[Fuc(a1-2)Gal(b1-4)[Fuc(a1-3)]GlcNAc(b1-2)Man(a1-6)]Man(b1-4)GlcNAc(b1-4)[Fuc(a1-6)]GlcNAc
How it was run: as §1

[9] = molecular target: Fuc(a1-2)Gal(b1-4)[Fuc(a1-3)]GlcNAc(b1-2)[Fuc(a1-2)Gal(b1-4)[Fuc(a1-3)]GlcNAc(b1-4)]Man(a1-3)[Fuc(a1-2)Gal(b1-4)[Fuc(a1-3)]GlcNAc(b1-2)Man(a1-6)]Man(b1-4)GlcNAc(b1-4)GlcNAc
How it was run: as §1

[10] = molecular target: Fuc(a1-2)Gal(b1-4)[Fuc(a1-3)]GlcNAc(b1-3)Gal(b1-4)[Fuc(a1-3)]GlcNAc
How it was run: as §1

[11] = molecular target: Fuc(a1-2)Gal(b1-4)[Fuc(a1-3)]GlcNAc(b1-3)Gal(b1-4)[Fuc(a1-3)]GlcNAc(b1-3)Gal(b1-4)[Fuc(a1-3)]GlcNAc
How it was run: as §1

[12] = molecular target: Fuc(a1-2)Gal(b1-4)[Fuc(a1-3)]GlcNAc(b1-3)GalNAc
How it was run: as §1

[13] = molecular target: Fuc(a1-2)Gal(b1-4)[Fuc(a1-3)]GlcNAc(b1-3)[Neu5Ac(a2-6)Gal(b1-4)GlcNAc(b1-6)]Gal(b1-4)Glc
How it was run: as §1

[14] = molecular target: Fuc(a1-2)Gal3S(b1-4)GlcNAc
How it was run: as §1

[15] = molecular target: Fuc(a1-2)Gal6S(b1-3)GlcNAc
How it was run: as §1

[16] = molecular target: Fuc(a1-2)Gal6S(b1-3)GlcNAc6S
How it was run: as §1

Fuc(a1-2)Gal6S(b1-4)Glc = molecular target: Fuc(a1-2)Gal6S(b1-4)Glc
How it was run: as §1

[17] = molecular target: Fuc(a1-2)Gal6S(b1-4)Glc6S
How it was run: as §1

Fuc(a1-2)[Gal(a1-3)]Gal = molecular target: Fuc(a1-2)[Gal(a1-3)]Gal
How it was run: as §1

[18] = molecular target: Fuc(a1-2)[Gal(a1-3)]Gal(b1-3)GalNAc
How it was run: as §1

[19] = molecular target: Fuc(a1-2)[Gal(a1-3)]Gal(b1-3)GalNAc(b1-3)Gal(a1-4)Gal(b1-4)Glc
How it was run: as §1

[20] = molecular target: Fuc(a1-2)[Gal(a1-3)]Gal(b1-3)GlcNAc
How it was run: as §1

[21] = molecular target: Fuc(a1-2)[Gal(a1-3)]Gal(b1-3)GlcNAc(b1-2)Man(a1-3)[Fuc(a1-2)[Gal(a1-3)]Gal(b1-3)GlcNAc(b1-2)Man(a1-6)]Man(b1-4)GlcNAc(b1-4)GlcNAc
How it was run: as §1

[22] = molecular target: Fuc(a1-2)[Gal(a1-3)]Gal(b1-3)GlcNAc(b1-2)Man(a1-3)[Fuc(a1-2)[Gal(a1-3)]Gal(b1-3)GlcNAc(b1-2)Man(a1-6)]Man(b1-4)GlcNAc(b1-4)[Fuc(a1-6)]GlcNAc
How it was run: as §1

[23] = molecular target: Fuc(a1-2)[Gal(a1-3)]Gal(b1-3)GlcNAc(b1-3)GalNAc
How it was run: as §1

[24] = molecular target: Fuc(a1-2)[Gal(a1-3)]Gal(b1-3)GlcNAc(b1-6)GalNAc
How it was run: as §1

[25] = molecular target: Fuc(a1-2)[Gal(a1-3)]Gal(b1-4)Glc
How it was run: as §1

[26] = molecular target: Fuc(a1-2)[Gal(a1-3)]Gal(b1-4)GlcNAc
How it was run: as §1

[27] = molecular target: Fuc(a1-2)[Gal(a1-3)]Gal(b1-4)GlcNAc(b1-2)Man
How it was run: as §1

[28] = molecular target: Fuc(a1-2)[Gal(a1-3)]Gal(b1-4)GlcNAc(b1-2)Man(a1-3)[Fuc(a1-2)[Gal(a1-3)]Gal(b1-4)GlcNAc(b1-2)Man(a1-6)]Man(b1-4)GlcNAc(b1-4)GlcNAc
How it was run: as §1

[29] = molecular target: Fuc(a1-2)[Gal(a1-3)]Gal(b1-4)GlcNAc(b1-2)Man(a1-3)[Fuc(a1-2)[Gal(a1-3)]Gal(b1-4)GlcNAc(b1-2)Man(a1-6)]Man(b1-4)GlcNAc(b1-4)[Fuc(a1-6)]GlcNAc
How it was run: as §1

[30] = molecular target: Fuc(a1-2)[Gal(a1-3)]Gal(b1-4)GlcNAc(b1-3)GalNAc
How it was run: as §1

[31] = molecular target: Fuc(a1-2)[Gal(a1-3)]Gal(b1-4)GlcNAc(b1-3)[Fuc(a1-2)[Gal(a1-3)]Gal(b1-4)GlcNAc(b1-6)]GalNAc
How it was run: as §1

[32] = molecular target: Fuc(a1-2)[Gal(a1-3)]Gal(b1-4)GlcNAc(b1-6)GalNAc
How it was run: as §1

[33] = molecular target: Fuc(a1-2)[Gal(a1-3)]Gal(b1-4)[Fuc(a1-3)]Glc
How it was run: as §1

[34] = molecular target: Fuc(a1-2)[Gal(a1-3)]Gal(b1-4)[Fuc(a1-3)]GlcNAc
How it was run: as §1

[35] = molecular target: Fuc(a1-2)[Gal(a1-3)]Gal(b1-4)[Fuc(a1-3)]GlcNAc(b1-3)GalNAc
How it was run: as §1

B1: B1567 (Bifidobacterium sp) (protein)
chain: MKFTTAKKAVALTGAVAMLVSVAACGSDSGKSSQPAQDSDVKEITVWAWEPSLTQVAKDFEKETGIKVDLKNVGTNTKEYTQLDNAIEAGSGAPDVAQVEYYAVPQYAIKGNLLDITDKTSGYKDFYTPGPWASVQFAGKVYGLPMDSGPMAFFYNKEVFDKAGVDAEQIKTWDQYYDAAKKIHALGDNYYITSDTGDAGFFDSMTWLAGAKPFQTSSDGSEVTVNLTEDKGVKTFTDFWQKLLDEGLLDTKTAGWSEDWFKGMVDGTIASLFTGAWMPANLANSAADGAGKWRVTQMPTADGSTTNSENGGSSLAVLASTKKADAAYQFIEYANHGAGVATRVAGGAFPADKASLEKDSFKNATTVKNADGQDVDYFGGQKYNEVLAQAAENVSSGYQFLPFEVKARTIFGDYFGKSYTGDQKLSDGVAAWQKALQDYGKDQGFTVK
[1]
  glycan array binding signal (z-score): -0.022
[2]
  glycan array binding signal (z-score): -0.127
[3]
  glycan array binding signal (z-score): -0.135
[4]
  glycan array binding signal (z-score): -0.091
[5]
  glycan array binding signal (z-score): 0.021
[6]
  glycan array binding signal (z-score): -0.121
[7]
  glycan array binding signal (z-score): -0.12
[8]
  glycan array binding signal (z-score): -0.075
[9]
  glycan array binding signal (z-score): -0.056
[10]
  glycan array binding signal (z-score): -0.104
[11]
  glycan array binding signal (z-score): 0.016
[12]
  glycan array binding signal (z-score): 0.016
[13]
  glycan array binding signal (z-score): -0.127
[14]
  glycan array binding signal (z-score): -0.099
[15]
  glycan array binding signal (z-score): -0.09
[16]
  glycan array binding signal (z-score): -0.077
Fuc(a1-2)Gal6S(b1-4)Glc
  glycan array binding signal (z-score): 0.053
[17]
  glycan array binding signal (z-score): -0.068
Fuc(a1-2)[Gal(a1-3)]Gal
  glycan array binding signal (z-score): -0.123
[18]
  glycan array binding signal (z-score): -0.099
[19]
  glycan array binding signal (z-score): -0.093
[20]
  glycan array binding signal (z-score): -0.11
[21]
  glycan array binding signal (z-score): 0.044
[22]
  glycan array binding signal (z-score): -0.036
[23]
  glycan array binding signal (z-score): -0.097
[24]
  glycan array binding signal (z-score): -0.109
[25]
  glycan array binding signal (z-score): -0.174
[26]
  glycan array binding signal (z-score): -0.012
[27]
  glycan array binding signal (z-score): -0.112
[28]
  glycan array binding signal (z-score): -0.053
[29]
  glycan array binding signal (z-score): -0.082
[30]
  glycan array binding signal (z-score): -0.135
[31]
  glycan array binding signal (z-score): -0.001
[32]
  glycan array binding signal (z-score): -0.106
[33]
  glycan array binding signal (z-score): -0.113
[34]
  glycan array binding signal (z-score): -0.085
[35]
  glycan array binding signal (z-score): -0.041
